Measurements as given in the supplement of paper PMC3334620.
The full ranking holds about 33,000 sequences; the median of “E-score (-0.5 to 0.5)” is about -0.012, and the highest 2% start at about 0.29. The list shows a part of the results.

These sequences were tested against T1, Ybr033w (UniProt P38073) (assay: PBM E-score (8-mer binding enrichment) (E-score (-0.5 to 0.5)); higher = stronger / more preferred TF binding; most listed sequences are background and not binding sites). Settings: protein concentration: 200 nM; construct: GST-full length.
T1 sequence: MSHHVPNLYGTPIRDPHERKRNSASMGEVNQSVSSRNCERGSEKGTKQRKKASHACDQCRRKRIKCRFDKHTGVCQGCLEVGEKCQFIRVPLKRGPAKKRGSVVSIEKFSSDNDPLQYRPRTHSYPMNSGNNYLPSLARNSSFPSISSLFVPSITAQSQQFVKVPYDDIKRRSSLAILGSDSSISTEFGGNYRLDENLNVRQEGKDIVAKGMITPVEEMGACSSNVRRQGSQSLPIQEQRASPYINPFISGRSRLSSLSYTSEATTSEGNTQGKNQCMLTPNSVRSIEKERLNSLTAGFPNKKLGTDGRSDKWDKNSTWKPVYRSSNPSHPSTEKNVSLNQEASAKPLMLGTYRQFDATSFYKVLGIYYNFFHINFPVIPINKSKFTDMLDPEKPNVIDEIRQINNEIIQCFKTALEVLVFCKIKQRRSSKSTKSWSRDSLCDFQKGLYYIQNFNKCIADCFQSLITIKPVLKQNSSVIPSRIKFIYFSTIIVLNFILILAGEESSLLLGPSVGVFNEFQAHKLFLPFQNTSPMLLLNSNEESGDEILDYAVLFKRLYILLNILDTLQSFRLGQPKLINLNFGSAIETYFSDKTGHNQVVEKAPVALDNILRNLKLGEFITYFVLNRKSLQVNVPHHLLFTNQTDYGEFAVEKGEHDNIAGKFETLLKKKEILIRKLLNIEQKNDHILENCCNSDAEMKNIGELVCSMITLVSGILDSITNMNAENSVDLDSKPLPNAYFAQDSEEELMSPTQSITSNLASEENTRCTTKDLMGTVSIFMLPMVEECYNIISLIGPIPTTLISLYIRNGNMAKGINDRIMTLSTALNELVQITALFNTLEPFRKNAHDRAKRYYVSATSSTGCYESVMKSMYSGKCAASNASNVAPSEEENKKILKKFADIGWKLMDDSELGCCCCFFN
Protocol: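 Universal 'all 10-mer' protein binding microarrays (Agilent AMADID 015681) probed with GST-tagged S. cerevisiae TFs (full-length or DBD) made by in vitro transcription/translation (PURExpress), about 100-200 nM. Bound TF was detected with fluorescent anti-GST. Each ungapped 8-mer (which stands for itself and its reverse complement) is scored by the PBM enrichment score (E-score), a modified Wilcoxon-Mann-Whitney statistic from -0.5 to +0.5, computed with the Universal PBM Analysis Suite. Scale: above 0.35 generally sequence-specific binding.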
For ATGTCTCC, the “PBM E-score” value was -0.0377.
For ACCGGGAG, the “PBM E-score” value was -0.268.
For AGGACCGG, the “PBM E-score” value was -0.276.
GGACCGGA was tested, and the “PBM E-score” value was -0.0009.
With CTGGACGC the “PBM E-score” value was -0.321.
With CGTGAAGA the “PBM E-score” value was -0.00671.
With GAATATCA the “PBM E-score” value was 0.259.
In the case of ATATACAT, the “PBM E-score” value is reported as 0.265.
CCTCCAGC was tested, and the “PBM E-score” value was -0.159.
In the case of GAAACTAC, the “PBM E-score” value is reported as 0.153.
For CTTGTTCC, the “PBM E-score” value was 0.27.
CATTGTAG was tested, and the “PBM E-score” value was 0.09.
With ACGACCTC the “PBM E-score” value was 0.219.
AGGTATTG was tested, and the “PBM E-score” value was 0.0485.
For ATTGTTTA, the “PBM E-score” value was 0.296.
In the case of GAACACTA, the “PBM E-score” value is reported as 0.0403.
With ACGCACGA the “PBM E-score” value was 0.03.
In the case of CAGGCTAG, the “PBM E-score” value is reported as -0.289.
ATAGTTCG was tested, and the “PBM E-score” value was 0.0202.
CTGTGAAA was tested, and the “PBM E-score” value was 0.216.
AAATTCCT was tested, and the “PBM E-score” value was 0.124.
With CGTGTCAG the “PBM E-score” value was -0.0641.
For AACACAAA, the “PBM E-score” value was 0.0645.
In the case of TCAAAGCA, the “PBM E-score” value is reported as -0.0304.
For CATTGTCG, the “PBM E-score” value was -0.138.
With ACGTTACT the “PBM E-score” value was 0.0376.
In the case of ACAGTCAA, the “PBM E-score” value is reported as 0.168.
In the case of AGAGTAAA, the “PBM E-score” value is reported as 0.0304.
In the case of GCGAGCTA, the “PBM E-score” value is reported as -0.00627.
In the case of GGACGCAA, the “PBM E-score” value is reported as -0.101.
In the case of ATAGTAAC, the “PBM E-score” value is reported as 0.116.
In the case of ATGCGTCC, the “PBM E-score” value is reported as -0.266.
CTGTGTGC was tested, and the “PBM E-score” value was -0.0829.
With CACAGGAG the “PBM E-score” value was -0.075.
CTCGAACC was tested, and the “PBM E-score” value was -0.114.
CGTGCCCC was tested, and the “PBM E-score” value was -0.302.
In the case of CGCTACGA, the “PBM E-score” value is reported as -0.0121.
For TAACAGTA, the “PBM E-score” value was 0.113.
In the case of ACCGACAG, the “PBM E-score” value is reported as -0.135.
In the case of ACCGAGTC, the “PBM E-score” value is reported as -0.175.
With ACTATATA the “PBM E-score” value was 0.309.
CCCGACCC was tested, and the “PBM E-score” value was -0.269.
In the case of CTGATAAA, the “PBM E-score” value is reported as 0.25.
With GATAGCCA the “PBM E-score” value was -0.0389.
With AGGCCCAG the “PBM E-score” value was -0.24.
CATGCTAC was tested, and the “PBM E-score” value was -0.0247.
GGCGGCCA was tested, and the “PBM E-score” value was -0.204.
ATTTACGC was tested, and the “PBM E-score” value was 0.149.
In the case of ATATTCGG, the “PBM E-score” value is reported as 0.0327.
In the case of TATACTAA, the “PBM E-score” value is reported as 0.0233.
In the case of AGTTGAGA, the “PBM E-score” value is reported as -0.0349.
For GCTTGCTA, the “PBM E-score” value was -0.0945.
In the case of CGCACACA, the “PBM E-score” value is reported as 0.0069.
AAGTTTCA was tested, and the “PBM E-score” value was 0.24.
With CGTCAGTC the “PBM E-score” value was 0.0529.
With GGCGCCAA the “PBM E-score” value was -0.0673.
CCCGCGGG was tested, and the “PBM E-score” value was -0.216.
In the case of ATCGTCTG, the “PBM E-score” value is reported as -0.112.
In the case of GGACCGTA, the “PBM E-score” value is reported as -0.208.
ACGTGCCA was tested, and the “PBM E-score” value was -0.191.
GCACAGAA was tested, and the “PBM E-score” value was -0.00797.
CATACCAA was tested, and the “PBM E-score” value was 0.189.
With CTGCGTTC the “PBM E-score” value was -0.00942.
With CCGGAGTA the “PBM E-score” value was 0.133.
With ACTGGGAC the “PBM E-score” value was -0.0668.
In the case of AGACGATC, the “PBM E-score” value is reported as -0.242.
With AACAACGT the “PBM E-score” value was 0.0838.
In the case of GCACAGCA, the “PBM E-score” value is reported as -0.0918.
AGAATCAT was tested, and the “PBM E-score” value was 0.152.
In the case of ACAAGTGC, the “PBM E-score” value is reported as -0.093.
In the case of CGGCCTTA, the “PBM E-score” value is reported as -0.00193.
With CTCGAGCA the “PBM E-score” value was 0.0129.
For CTTCATCC, the “PBM E-score” value was -0.0751.
For AACACCCT, the “PBM E-score” value was -0.026.
ACAGATGA was tested, and the “PBM E-score” value was -0.0859.
For AAACCAGA, the “PBM E-score” value was 0.0968.
In the case of ACGGGGAA, the “PBM E-score” value is reported as 0.0497.
AGCGATGC was tested, and the “PBM E-score” value was -0.168.
ATTGGTAA was tested, and the “PBM E-score” value was 0.173.
For GCGTGGCC, the “PBM E-score” value was -0.193.
For GCAAACTA, the “PBM E-score” value was 0.138.
With CAGAAACA the “PBM E-score” value was 0.0493.
In the case of AATCCGAT, the “PBM E-score” value is reported as 0.237.
CCAGTGTC was tested, and the “PBM E-score” value was -0.00819.
With GGACTGAA the “PBM E-score” value was -0.141.
In the case of ACGGAATG, the “PBM E-score” value is reported as -0.153.
